This note sets out measurements from patent US11660328B2, “GLP-2 analogs and peptibodies for administration before, during or after surgery” (TAKEDA PHARMACEUTICAL COMPANY LIMITED, priority 2017, dated 2023).

The assay has as its system small intestine. In words: Histology study of villi length and crypt depth (H&E sections, imagescope). The class given is in vivo, female CD-1 mice. As to conditions: after administration vs without treatment, FIGS. 1-3. On the procedure: Various doses of GLP-2 peptibody B264 were analyzed to assess the pharmacodynamic plateau, with the primary endpoint a measurement of the small intestinal weight relative to the total body weight and a histology study of the length of villi. 11 groups of six female CD-1 mice each were formed. [table] For histology, four micron paraffin sections were prepared for H&E and Ki67 IHC staining. After whole slide scanning, an imagescope was used to measure villi length and crypt depth, and to analyze Ki67. The antibody against Ki67 is a rabbit antibody sold by Adcam®, catalog number ab 616667. The antibody was used at a working concentration of 1:100 and was detected using a Leica® Refine Kit. […] See, e.g., Example 13 of U.S. Provisional Application No. 62/548,601, filed Aug. 22, 2017 for more data and examples with respect to GLP-2 peptibody B264, GLP-2 peptibody […], and a GLP-2[[…]] peptide.

B1: GLP-2 peptibody B264: GLP-2 peptibody having the amino acid sequence of SEQ ID NO: 2 (GLP-2[A2G]-linker-IgG1 Fc fusion) (protein, listed as Homo sapiens)
chain: HGDGSFSDEMNTILDNLAARDFINWLIQTKITDGGGGG[letters of human IgG1 Fc with changes left out]
On to B1, for which the “crypt depth in the small intestine” value was “increased crypt depth”. Further, under “small intestine”, the villus height result is given as “increased villus height”.
